Experimental data as given in PubChem BioAssay AID1347073 (National Center for Advancing Translational Sciences (NCATS), 2019).
The campaign covered roughly 45,000 compounds. About 200 (0.44%) were called active. Another 7% or so got no clear call; they are omitted. Calls follow the shape of the dose curve; as a rule, active = well fitted activation curve with a large enough effect; inconclusive = small, poorly fitted or top-dose-only effect; inactive = no such curve, though single readings can be large or run the other way. The list shows a part of the results.

Experiment: qHTS of TDP-43 Inhibitors: NCGC Sytravon Library Screen; also: nearly all actives have a fitted effect of over 55% in size; as to growth rescue (activation): 0% is about no effect
Conditions: yeast TDP-43 toxicity rescue, BacTiter-Glo growth, 24 h; series mostly up to 46.1 µM; growth rescue (activation): at the top concentration
In short: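 TDP-43-expressing yeast, pregrown in raffinose, seeded at OD600 0.02 in galactose medium with compound for 24 hr at 30 deg C. Growth read by BacTiter-Glo luminescence, so rescue of toxicity appears as activation.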
Potency is read from the fitted curve at half-maximal effect.

| SMILES | growth rescue (activation) | Potency |
| --- | --- | --- |
| Cc1cc(Br)ccc1NC(=O)CN(C)Cc1cccs1 | inactive: -4.58% | – |
| COc1cccc(NC(=O)CN2C(=O)C(=O)N(C3CCCC3)C2=O)c1 | inactive: -1.46% | – |
| CCOc1ccc(N=C(C)C2=C(O)c3ccccc3C2=O)cc1 | inactive: -14.1% | – |
| CCS(=O)(=O)N1Cc2ccccc2CC1C(=O)Nc1ccc(OC)c(OC)c1 (stereo unspecified) | inactive: -3.13% | – |
| Cc1cc(C)n(C(=O)/C=C/c2cccs2)n1 | inactive: 14.9% | – |
| CCN(CC)S(=O)(=O)c1ccc(NC(=O)CSc2ncnc3ccccc23)cc1 | – | active: 22.4 µM |
| Cc1ccc2nc(-c3ccc(O)cc3)oc2c1 | inactive: 10.2% | – |
| CCOC(=O)C1(CCOC)CCN(Cc2nc(C(C)C)cs2)CC1 | inactive: -3.33% | – |
| CSc1nc2ccc(NC(=O)c3ccco3)cc2s1 | inactive: 15.5% | – |
| Cc1ccc(OCCC(=O)NNC(=O)c2ccc(Br)cc2)cc1 | inactive: 19.7% | – |
| COc1cc(C)ccc1OCC(=O)OCC(=O)c1[nH]c(C)c(C(C)=O)c1C | inactive: 2.79% | – |
| C=CC[n+]1cccc(-c2cc3ccc(C)cc3[nH]2)c1 | inactive: -0.804% | – |
| CCOC(=O)c1c(C)c[nH]c1C | inactive: -3.88% | – |
| Cc1cc(C)c(C(=O)COC(=O)c2ccc(NC(=O)CC#N)cc2)cc1C | inactive: 36.1% | – |
| COc1ccccc1CCC(=O)OCC(=O)NCc1ccc(OC)c(OC)c1 | inactive: 6.01% | – |
| O=C(N/N=C/c1ccccc1[N+](=O)[O-])c1cccs1 | inactive: 12.9% | – |
| CC(C)(C)NC(=O)NC(=O)COC(=O)CCC1CCCC1 | inactive: 27.9% | – |
| O=C(NCCc1ccccc1F)c1cccc2cccnc12 | inactive: 7.19% | – |
| CCc1cc2c(COC(=O)c3cccc(NS(C)(=O)=O)c3)cc(=O)oc2cc1O | inactive: 10.9% | – |
| O=C(COC(=O)CN1C(=O)NC2(CCCC2)C1=O)NCc1ccc(Cl)cc1Cl | inactive: 4.37% | – |
| O=S(=O)(NCc1csc(-c2ccccc2)n1)c1cccc(F)c1 | inactive: 31.4% | – |
| CCCCN(C=O)c1c(CC)nc2c(OCCOc3ccc(F)cc3)cccn12 | inactive: 11.6% | – |
| CCc1ccc(N2CC(C(=O)Nc3ccc(S(=O)(=O)Nc4ncccn4)cc3)CC2=O)cc1 (stereo unspecified) | inactive: 5.09% | – |

| SMILES | growth rescue (activation) | Potency |
| --- | --- | --- |
| CCC(=O)NN1CCc2cc3ccc(C)cc3nc21 | inactive: 12.6% | – |
| COc1ccc(/C=C2\Sc3ccc(C(=O)NCc4cccnc4)cc3N(C)C2=O)cc1OC | inactive: 12.5% | – |
| COc1cccc(C(=O)COC(=O)c2n[nH]c(=O)c3ccccc23)c1 | inactive: 8.11% | – |
| Cc1ccnc(NC(=O)COC(=O)c2ccc(F)cc2F)n1 | inactive: -5.78% | – |
| O=C(Nc1ccccc1)O/N=C/c1ccncc1 | inactive: 0.711% | – |
| COc1ccc(C(=O)Nc2ccccc2C(=O)N2CCOCC2)cc1 | inactive: -0.777% | – |
| COc1cc(NS(=O)(=O)c2ccc(NC(=S)NC(=O)/C=C/c3ccco3)cc2)ncn1 | inactive: 0.203% | – |
| CC(C)NC(=O)CN(Cc1ccc2c(c1)OCO2)C(=O)CCC(=O)Nc1ccccn1 | inactive: -14.4% | – |
| CCn1c(=O)c2cc(C(=O)NCCOC)sc2c2ccccc21 | inactive: -0.983% | – |
| COc1ccc(N2CC(C(=O)Nc3ccccc3C(=O)NC3CC3)CC2=O)cc1 (stereo unspecified) | inactive: 5.68% | – |
| Cc1cccc(NC(=O)c2sc(NC(=O)COc3ccccc3)c(C#N)c2C)c1C | inactive: 5.66% | – |
| Cc1ccc(NC(=O)c2ccc3nccnc3c2)c(C)c1 | inactive: 12.1% | – |
| Cn1nnnc1SCC(=O)Nc1ncc(C(F)(F)F)cc1Cl | inactive: -0.308% | – |
| Cc1cc(O)ccc1-c1cccc2nccn12 | inactive: -0.0471% | – |
| CC(C)(C)c1cc(N2CCOCC2)n2ncc(-c3ccc(Cl)cc3)c2n1 | inactive: 17.6% | – |
| CCCCc1nc2c(C)c(N)cnc2n1Cc1cccc([N+](=O)[O-])c1 | inactive: 5.68% | – |
| CCCCCCC(C)n1[nH]c(=O)cc1N (stereo unspecified) | inactive: -16% | – |
| CCc1cc2c(=O)c(-c3nc(C)cs3)coc2cc1OC(C)C(=O)NCCO (stereo unspecified) | inactive: -15.5% | – |
| Cc1cc(C(=O)NCc2cc(C(=O)O)co2)co1 | inactive: 10.2% | – |
| O=C(Cc1ccccc1)NNS(=O)(=O)c1ccc([N+](=O)[O-])cc1 | inactive: 9.81% | – |
| CC(=O)N1CCOCCOCCN(C(C)=O)CCOCC1 | inactive: 10.6% | – |
| Clc1c(-c2ccccc2)nc2ccccn12 | inactive: 0.877% | – |
| O=C1COc2ccc(C(=O)COC(=O)c3ccccc3F)cc2N1 | inactive: 12.9% | – |

| SMILES | growth rescue (activation) | Potency |
| --- | --- | --- |
| Cc1cccc(-c2c3c(=O)n(C)c(=O)n(C)c3cn2CCO)c1 | inactive: -9.65% | – |
| Cc1sc2ncnc(NC(C)C(=O)O)c2c1C (stereo unspecified) | inactive: 3.18% | – |
| CCOC(=O)c1[nH]c(C)c(C(=O)NCC2CCCO2)c1C (stereo unspecified) | inactive: 1.2% | – |
| CCN(CC)S(=O)(=O)c1cccc(NC(=O)COC(=O)c2cncc(Br)c2)c1 | inactive: 20% | – |
| CCc1cc2cccc(C)c2nc1SCC(=O)NC1CCCC1 | inactive: 6.82% | – |
| Cc1ccc(CNC(=O)c2sc3nc[nH]c(=O)c3c2C)cc1 | inactive: 2.43% | – |
| Cc1ccc(NC(=O)CN2C(=O)C3CC=CCC3C2=O)cc1S(=O)(=O)N1CCOCC1 (stereo unspecified) | inactive: 12.9% | – |
| CC(=O)Nc1nnc(SCC(=O)N2CCc3ccccc32)s1 | inactive: 8.55% | – |
| O=C(CN1c2cccc3cccc(c23)S1(=O)=O)NCc1ccc(F)cc1 | inactive: -25.5% | – |
| Cc1ccc(-c2ccc(S(=O)(=O)NCC3CCCO3)cc2)cc1 (stereo unspecified) | inactive: 18.9% | – |
| Cc1ccc(-c2nc(CN(Cc3cnn(C)c3)C(C)C)c(C)o2)o1 | inactive: 2.52% | – |
| Cc1c(-c2csc(N)n2)c2ccccc2n1C | inactive: -21.3% | – |
| COc1ccc(NC(=O)C(C)N2C(=O)c3ccccc3C2=O)cc1S(=O)(=O)N1CCOCC1 (stereo unspecified) | inactive: 17% | – |
| COc1ccc2cc(C(=O)/C=C/c3cc(OC)c(OC)c(OC)c3)ccc2c1 | inactive: 14.3% | – |
| CC(C)NS(=O)(=O)c1ccc(CCC(=O)NCc2ccncc2)cc1 | inactive: 0.479% | – |
| Cc1ccc(CNC(=O)Nc2nnc([C@H]3C[C@H](O)[C@@H](CO)O3)s2)cc1 | inactive: 4.66% | – |
| CN(C)S(=O)(=O)N(CC(=O)NCCSCc1ccccc1)c1ccccc1 | inactive: 12.4% | – |
| CCN(CC)C(=O)c1cc(-c2ccc3c(c2)OCO3)on1 | inactive: 6.3% | – |
| CC1(C(=O)O)CCCN1C(=O)c1ccco1 (stereo unspecified) | inactive: 3.02% | – |
| CC(=O)c1c(C)[nH]c(C(=O)CSc2nnc(-c3ccccc3)o2)c1C | inactive: 9.21% | – |
| CC(CC(=O)Nc1ccc(C(N)=O)cc1)c1ccccc1 (stereo unspecified) | inactive: -1.47% | – |
| CC(C)c1nc(SCC(=O)Nc2c[nH]c(=O)[nH]c2=O)c2cnn(-c3ccccc3)c2n1 | inactive: 6.47% | – |
| O=C(O)c1ccc(-n2nncc2-c2ccccc2)cc1 | inactive: -7.43% | – |

| SMILES | growth rescue (activation) | Potency |
| --- | --- | --- |
| CC(C)(C)c1cc(N)n2nc(C(C)(C)C)cc2n1 | inactive: 6.28% | – |
| COc1ccc(OCC(=O)N2CC3(C)CC2CC(C)(C)C3)cc1 (stereo unspecified) | inactive: 0.003% | – |
| Oc1nc(Nc2ccc(F)cc2)sc1/C=C1\C=Nc2ccccc21 | inactive: 3.09% | – |
| Cc1cc(=O)n2[nH]c(SCc3ccccc3Cl)nc2n1 | inactive: -1.83% | – |
| O=[N+]([O-])c1ccc(NCCNS(=O)(=O)c2ccccc2)cc1 | inactive: -0.362% | – |
| COc1cccc(CC(=O)Nc2ccc3c(c2)c(=O)n(C)n3-c2ccc(C(C)(C)C)cc2)c1 | inactive: 6.21% | – |
| O=C(c1ccc(N2C(=O)C3C4c5ccccc5C(c5ccccc54)C3C2=O)cc1)N1CCOCC1 (stereo unspecified) | inactive: 0.39% | – |
| FC(F)(F)c1ccc(N=Cc2sc(N3CCOCC3)nc2-c2ccccc2)cc1 | inactive: 6.38% | – |
| Cc1cc2oc(=O)sc2cc1NS(=O)(=O)c1ccccc1 | inactive: 35.7% | – |
| CCC(C)N1C(=O)CCC1C(=O)NCCc1ccc(Cl)cc1 (stereo unspecified) | inactive: 3.68% | – |
| Cc1cccc(C(=O)Nc2ccc(NC(=O)CN3CCOCC3)cc2)c1 | inactive: -7.08% | – |
| CC1=C(C(=O)Nc2ccc(C(=O)NCCC(C)C)cc2)SCCO1 | inactive: 12.7% | – |
| CC(=O)c1cn(N(C)c2ncc(C(F)(F)F)cc2Cl)c(=O)[nH]c1=O | inactive: -19.6% | – |
| Cc1cc(NC(=O)Nc2ccccc2F)ccc1Br | inactive: -6.3% | – |
| CC(=O)Nc1cccc(C(=O)N2CCN(S(=O)(=O)Cc3ccccc3)CC2)c1 | inactive: -3.84% | – |
| COc1ccc(N2C3=C(C(=O)CC(C)(C)C3)C(c3cnn(C)c3)C3=C2CC(C)(C)CC3=O)cc1 | inactive: -4.35% | – |
| CCN(c1ccccc1)S(=O)(=O)c1cc(C(=O)Nc2ccc(F)c(F)c2)ccc1F | inactive: 4.63% | – |
| CCCN(CCC)CC(=O)Nc1cccc2c1OCO2 | inactive: -15.1% | – |
| O=C(CSc1nnc(-c2ccccn2)o1)Nc1ccccc1C(F)(F)F | inactive: 13.8% | – |
| Cc1cc(N(C)/N=C/c2ccccc2O)nc(-c2ccccc2O)n1 | inactive: 8.91% | – |
| CCC1Oc2ccccc2N(CC(=O)NC2CCCC2)C1=O (stereo unspecified) | inactive: -2.7% | – |
| O=C(O)CCN1C(=O)/C(=C2\C(=O)N(Cc3ccc(F)cc3)c3ccccc32)SC1=S | inactive: 1.97% | – |
| Nc1cc(N)nc(SCC(=O)c2ccc3c(c2)NC(=O)CO3)n1 | inactive: -13.1% | – |

| SMILES | growth rescue (activation) | Potency |
| --- | --- | --- |
| O=C(/C=C\c1ccc2c(c1)OCO2)CC1(O)C(=O)Nc2ccccc21 (stereo unspecified) | inactive: 25.6% | – |
| Cc1ccc(C(=O)N2c3ccc(C)cc3C(C)(c3ccccc3)CC2(C)C)cc1 (stereo unspecified) | inactive: 1.59% | – |
| C=CCN(c1cccc(C(F)(F)F)c1)S(=O)(=O)c1cccc(C(=O)OCC(=O)NC)c1 | inactive: 10.2% | – |
| NC(N)=NN=C1c2ccccc2-c2ccccc21 | inactive: 9.88% | – |
| Cc1cccc(N)c1SC1CCCCC1O (stereo unspecified) | inactive: 21.5% | – |
| CCc1ccc(NC(=O)CS(=O)CC(=O)Nc2ccc(-n3cnnn3)c(C)c2)cc1 (stereo unspecified) | inactive: 7.91% | – |
| COc1ccccc1N1CCN(C(=O)c2ccc3[nH]c4c(c3c2)CCCC4)CC1 | – | active: 17.8 µM |
| O=c1nccc(N/N=C/c2ccccc2O)[nH]1 | inactive: 5.36% | – |
| COc1ccc(NC(=O)C23CCC(C)(C(=O)C2)C3(C)C)cc1 (stereo unspecified) | inactive: 13.2% | – |
| Cc1ccc(C)c(NC(=O)c2ccc3nccnc3c2)c1 | inactive: -4.87% | – |
| COc1ccc(NC(=O)CCNS(=O)(=O)c2ccccc2F)cc1S(N)(=O)=O | inactive: 3.59% | – |
| CCCCCCCCCCS(=O)(=O)N/N=C/c1ccccc1OC | inactive: 3.39% | – |
| CC1CCCCC1NC(=O)COc1ccc(C#N)cc1 (stereo unspecified) | inactive: 11.6% | – |
| N#Cc1cn(Cc2ccccc2)c(=O)[nH]c1=O | inactive: -28.3% | – |
| O=C(Cn1cc(C(F)(F)F)cc(Cl)c1=O)NCc1ccc(Cl)cc1Cl | inactive: 5.38% | – |
| Cc1cccc(N2CN(S(=O)(=O)c3cccc([N+](=O)[O-])c3)c3nc4ccccc4nc32)c1 | inactive: 0.222% | – |
| CCCC(=O)NC(c1ccc2c(c1)OCO2)c1cc(Cl)c2cccnc2c1O (stereo unspecified) | inactive: 6.9% | – |
| NC(c1ccccc1)c1csc(NC(=O)Nc2cccc(C(F)(F)F)c2)n1 (stereo unspecified) | inactive: 0.792% | – |
| CCCOc1ccc(C(=O)N/N=C/c2c[nH]c3ccc(Br)cc23)cc1 | inactive: -4.86% | – |
